According to paper PMC5101480 (Scientific Reports, 2016):
These are yes or no findings as the source states them, for the method shown. Some entries that bind do so weakly or less than the wild type. Values belong to the molecule of their own block, whether it stands above or below them.

By UniProt entry, the sequences of proteins in these tests, tags left out. Residues count along the entry.
Rpn13 C-terminal domain, residues 260-407 (Q16186, residues 260-407): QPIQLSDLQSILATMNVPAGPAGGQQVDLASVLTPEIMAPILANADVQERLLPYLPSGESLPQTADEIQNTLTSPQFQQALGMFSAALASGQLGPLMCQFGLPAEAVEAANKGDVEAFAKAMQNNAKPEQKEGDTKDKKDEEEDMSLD
Rpn13 construct devoid of the C-terminal pentapeptide, residues 260-402 (Q16186, residues 260-402): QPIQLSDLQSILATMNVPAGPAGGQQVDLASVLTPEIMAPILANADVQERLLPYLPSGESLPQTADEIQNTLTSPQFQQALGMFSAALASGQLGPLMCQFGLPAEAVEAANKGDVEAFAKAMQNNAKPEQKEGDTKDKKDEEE

Key:
[1] = molecular target: Rpn13 C-terminal domain, residues 260-407 (human) (UniProt Q16186); experiment: NMR titration; 1H-15N HSQC chemical shift perturbation; unlabelled SGTA_TPR (wild type or K160E/R164E) titrated into 15N-labelled Rpn13_(260-407); 25 °C, 10 mM potassium phosphate pH 6.0, 100 mM NaCl, 250 μM TCEP; both purified
[2] = molecular target: K160E/R164E double mutant SGTA_TPR (residues 84-211) (human) (UniProt O43765); experiment: condition: up to a 6-fold molar excess of Rpn13_(260-407); NMR titration; 1H-15N HSQC chemical shift perturbation; unlabelled Rpn13 construct or DMSLD peptide titrated into 15N-labelled SGTA_TPR (wild type or K160E/R164E); 25 °C, 10 mM potassium phosphate pH 6.0, 100 mM NaCl, 250 μM TCEP; both purified
[3] = molecular target: TPR domain of SGTA (small, glutamine-rich, tetratricopeptide repeat protein alpha), residues 84-211 (human) (UniProt O43765); experiment: NMR titration; 1H-15N HSQC chemical shift perturbation; unlabelled Rpn13 construct or DMSLD peptide titrated into 15N-labelled SGTA_TPR (wild type or K160E/R164E); 25 °C, 10 mM potassium phosphate pH 6.0, 100 mM NaCl, 250 μM TCEP; both purified
[4] = molecular target: K160E/R164E double mutant SGTA_TPR (residues 84-211) (human) (UniProt O43765); experiment: SEC; the two proteins mixed in a 1:1 molar ratio (for the K160E/R164E mutant also with Rpn13_(260-407) at a 3-fold molar excess) and compared with each run individually under identical conditions; both purified
[5] = molecular target: TPR domain of SGTA (small, glutamine-rich, tetratricopeptide repeat protein alpha), residues 84-211 (human) (UniProt O43765); experiment: as above
[6] = molecular target: TPR domain of SGTA (small, glutamine-rich, tetratricopeptide repeat protein alpha), residues 84-211 (human) (UniProt O43765); experiment: condition: up to a 6-fold molar excess of Rpn13_(260-402); NMR titration; 1H-15N HSQC chemical shift perturbation; unlabelled Rpn13 construct or DMSLD peptide titrated into 15N-labelled SGTA_TPR (wild type or K160E/R164E); 25 °C, 10 mM potassium phosphate pH 6.0, 100 mM NaCl, 250 μM TCEP; both purified
[7] = molecular target: Rpn13 construct devoid of the C-terminal pentapeptide, residues 260-402 (human) (UniProt Q16186); experiment: ITC; SGTA_TPR at 1 mM injected into Rpn13 or DMSLD peptide at 50 μM in the cell; 25 °C, 10 mM potassium phosphate pH 6.0, 100 mM NaCl, 250 μM TCEP; one site assumed (n = 1); both purified

binding [1]: no binding
Molecule: K160E/R164E double mutant SGTA_TPR (residues 84-211) (from UniProt O43765 84-211) (domain or fragment)

binding [2]: no binding | binding [3]: binds | binding [5]: binds
Molecule: Rpn13 C-terminal domain, residues 260-407 (from UniProt Q16186 260-407) (domain or fragment)
binding [4]: no binding (tested: 3-fold molar excess of Rpn13_(260-407))

binding [6]: no binding | binding [5]: no binding (tested: 1:1 molar ratio)
Molecule: Rpn13 construct devoid of the C-terminal pentapeptide, residues 260-402 (from UniProt Q16186 260-402) (domain or fragment)

binding [7]: no binding
B1: TPR domain of SGTA (small, glutamine-rich, tetratricopeptide repeat protein alpha), residues 84-211 (domain or fragment, human, UniProt O43765 84-211, looked up)
chain: SEEDSAEAERLKTEGNEQMKVENFEAAVHFYGKAIELNPANAVYFCNRAAAYSKLGNYAGAVQDCERAICIDPAYSKAYGRMGLALSSLNKHVEAVAYYKKALELDPDNETYKSNLKIAELKLREAPS
notes: human SGTA, central TPR domain, residues 84-211; 15N-labelled (M9 medium) where it was the observed species in NMR; unlabelled otherwise; not shown: thioredoxin A (TxA), N-terminal, cleaved; His6, N-terminal, cleaved
